Laboratory results published in PMC11286522.
Where two headings read alike, the source gives them in different places. No constants are given. Whether binding was seen depends on the method and setting. For some assays here: Binding seen in cells or lysates may run through a third protein. Some entries that bind do so weakly or less than the wild type. For some assays here: Where a sequence is shown, tags or fusion partners need not be part of it. One block for each molecule: values may come before it.

Protein sequences, listed by entry. Tags and fused reporters are not part of them. Residues count along the entry.
UniProt O15460, residues 22-535: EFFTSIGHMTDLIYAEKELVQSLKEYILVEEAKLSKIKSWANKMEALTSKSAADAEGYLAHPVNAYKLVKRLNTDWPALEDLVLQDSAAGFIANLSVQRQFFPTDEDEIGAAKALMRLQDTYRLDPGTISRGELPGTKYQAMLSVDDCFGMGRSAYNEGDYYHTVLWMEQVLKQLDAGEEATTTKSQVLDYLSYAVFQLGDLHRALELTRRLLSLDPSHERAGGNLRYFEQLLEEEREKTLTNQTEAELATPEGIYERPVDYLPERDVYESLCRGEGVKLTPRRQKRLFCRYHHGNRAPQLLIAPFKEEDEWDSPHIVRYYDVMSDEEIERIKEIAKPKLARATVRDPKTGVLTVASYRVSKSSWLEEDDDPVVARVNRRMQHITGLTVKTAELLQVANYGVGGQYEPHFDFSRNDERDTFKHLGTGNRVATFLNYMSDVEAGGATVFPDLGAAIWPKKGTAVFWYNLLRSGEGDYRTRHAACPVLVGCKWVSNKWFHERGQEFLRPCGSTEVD
UniProt P08151: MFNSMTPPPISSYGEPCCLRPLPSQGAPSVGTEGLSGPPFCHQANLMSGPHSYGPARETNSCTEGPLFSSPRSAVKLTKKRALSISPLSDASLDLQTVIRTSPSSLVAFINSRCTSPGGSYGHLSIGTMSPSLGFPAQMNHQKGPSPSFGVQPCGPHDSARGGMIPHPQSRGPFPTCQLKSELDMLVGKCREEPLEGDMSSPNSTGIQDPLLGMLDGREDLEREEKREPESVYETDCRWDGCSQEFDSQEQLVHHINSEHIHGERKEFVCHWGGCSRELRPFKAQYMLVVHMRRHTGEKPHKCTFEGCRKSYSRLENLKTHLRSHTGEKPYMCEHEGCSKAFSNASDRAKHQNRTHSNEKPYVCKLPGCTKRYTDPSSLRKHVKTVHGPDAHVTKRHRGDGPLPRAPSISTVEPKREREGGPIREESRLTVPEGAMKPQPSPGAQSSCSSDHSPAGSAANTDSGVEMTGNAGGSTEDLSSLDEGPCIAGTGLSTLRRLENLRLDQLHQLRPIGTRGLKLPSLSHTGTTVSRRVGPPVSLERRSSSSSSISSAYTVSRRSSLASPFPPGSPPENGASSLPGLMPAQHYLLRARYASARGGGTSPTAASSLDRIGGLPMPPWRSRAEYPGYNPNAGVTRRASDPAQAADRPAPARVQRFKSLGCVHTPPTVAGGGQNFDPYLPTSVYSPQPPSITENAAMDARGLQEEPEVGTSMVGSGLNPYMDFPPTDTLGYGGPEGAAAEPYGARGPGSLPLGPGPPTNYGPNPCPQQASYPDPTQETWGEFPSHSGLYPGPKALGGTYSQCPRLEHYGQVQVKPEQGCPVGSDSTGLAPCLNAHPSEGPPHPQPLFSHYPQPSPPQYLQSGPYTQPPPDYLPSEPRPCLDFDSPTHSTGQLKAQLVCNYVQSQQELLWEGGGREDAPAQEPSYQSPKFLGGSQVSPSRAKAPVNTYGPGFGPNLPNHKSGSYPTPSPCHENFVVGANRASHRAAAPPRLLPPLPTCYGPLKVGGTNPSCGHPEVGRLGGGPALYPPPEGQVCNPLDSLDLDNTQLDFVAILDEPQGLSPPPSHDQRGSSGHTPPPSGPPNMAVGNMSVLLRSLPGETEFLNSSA
UniProt P10070: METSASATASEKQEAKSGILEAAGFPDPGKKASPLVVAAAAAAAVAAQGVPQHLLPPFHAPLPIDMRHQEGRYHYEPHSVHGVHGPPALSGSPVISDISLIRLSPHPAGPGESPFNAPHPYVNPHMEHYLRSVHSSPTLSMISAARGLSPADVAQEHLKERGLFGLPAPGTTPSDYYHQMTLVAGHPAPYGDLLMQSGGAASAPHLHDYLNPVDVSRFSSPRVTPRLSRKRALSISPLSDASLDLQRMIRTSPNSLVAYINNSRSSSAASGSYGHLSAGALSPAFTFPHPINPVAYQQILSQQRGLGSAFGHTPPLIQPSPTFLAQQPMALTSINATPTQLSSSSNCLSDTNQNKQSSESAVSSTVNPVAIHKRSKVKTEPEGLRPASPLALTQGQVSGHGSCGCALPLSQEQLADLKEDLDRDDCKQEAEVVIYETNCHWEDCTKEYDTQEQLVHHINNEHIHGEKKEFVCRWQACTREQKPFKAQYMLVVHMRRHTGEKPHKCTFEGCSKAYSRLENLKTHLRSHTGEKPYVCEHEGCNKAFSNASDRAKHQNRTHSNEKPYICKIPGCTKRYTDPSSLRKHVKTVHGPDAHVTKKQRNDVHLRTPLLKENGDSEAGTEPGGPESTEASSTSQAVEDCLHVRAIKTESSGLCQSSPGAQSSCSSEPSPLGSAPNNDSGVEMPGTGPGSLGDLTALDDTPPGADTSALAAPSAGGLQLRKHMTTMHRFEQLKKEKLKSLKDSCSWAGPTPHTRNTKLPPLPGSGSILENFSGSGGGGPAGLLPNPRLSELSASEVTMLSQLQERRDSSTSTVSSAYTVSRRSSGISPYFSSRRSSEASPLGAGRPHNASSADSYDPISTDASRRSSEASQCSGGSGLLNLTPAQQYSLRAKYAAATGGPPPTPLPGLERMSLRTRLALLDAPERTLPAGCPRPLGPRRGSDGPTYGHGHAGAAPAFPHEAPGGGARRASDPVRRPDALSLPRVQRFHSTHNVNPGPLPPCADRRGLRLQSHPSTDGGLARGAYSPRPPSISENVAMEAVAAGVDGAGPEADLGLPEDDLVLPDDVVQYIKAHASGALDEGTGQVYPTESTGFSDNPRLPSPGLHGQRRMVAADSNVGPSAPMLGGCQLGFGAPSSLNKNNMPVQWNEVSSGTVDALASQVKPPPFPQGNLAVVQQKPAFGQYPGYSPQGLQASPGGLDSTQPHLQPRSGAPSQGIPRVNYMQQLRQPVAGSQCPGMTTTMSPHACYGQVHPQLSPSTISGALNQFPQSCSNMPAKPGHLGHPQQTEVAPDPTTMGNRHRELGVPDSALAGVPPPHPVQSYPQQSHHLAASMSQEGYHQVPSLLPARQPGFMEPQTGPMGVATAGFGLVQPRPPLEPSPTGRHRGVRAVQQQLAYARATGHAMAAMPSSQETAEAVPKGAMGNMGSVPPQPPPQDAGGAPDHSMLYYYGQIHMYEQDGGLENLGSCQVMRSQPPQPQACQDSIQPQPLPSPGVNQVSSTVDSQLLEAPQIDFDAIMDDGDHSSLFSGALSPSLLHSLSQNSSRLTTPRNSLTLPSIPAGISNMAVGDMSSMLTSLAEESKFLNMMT

Key:
[1] = target: Flag-tagged P4HA2 (UniProt O15460); test: co-IP; HEK293T transfected with Flag-tagged constructs; lysate in RIPA or Cell Lysis Buffer; M2 anti-Flag beads, 4 °C, 3 hr; Western blot
[2] = target: T1, KIF7 (endogenous) (human (endogenous in HEK293T)) (UniProt Q2M1P5); test: co-IP; endogenous KIF7 and P4HA2 precipitated with specific antibodies from a HEK293T cell extract; immunoblotting
T1 sequence: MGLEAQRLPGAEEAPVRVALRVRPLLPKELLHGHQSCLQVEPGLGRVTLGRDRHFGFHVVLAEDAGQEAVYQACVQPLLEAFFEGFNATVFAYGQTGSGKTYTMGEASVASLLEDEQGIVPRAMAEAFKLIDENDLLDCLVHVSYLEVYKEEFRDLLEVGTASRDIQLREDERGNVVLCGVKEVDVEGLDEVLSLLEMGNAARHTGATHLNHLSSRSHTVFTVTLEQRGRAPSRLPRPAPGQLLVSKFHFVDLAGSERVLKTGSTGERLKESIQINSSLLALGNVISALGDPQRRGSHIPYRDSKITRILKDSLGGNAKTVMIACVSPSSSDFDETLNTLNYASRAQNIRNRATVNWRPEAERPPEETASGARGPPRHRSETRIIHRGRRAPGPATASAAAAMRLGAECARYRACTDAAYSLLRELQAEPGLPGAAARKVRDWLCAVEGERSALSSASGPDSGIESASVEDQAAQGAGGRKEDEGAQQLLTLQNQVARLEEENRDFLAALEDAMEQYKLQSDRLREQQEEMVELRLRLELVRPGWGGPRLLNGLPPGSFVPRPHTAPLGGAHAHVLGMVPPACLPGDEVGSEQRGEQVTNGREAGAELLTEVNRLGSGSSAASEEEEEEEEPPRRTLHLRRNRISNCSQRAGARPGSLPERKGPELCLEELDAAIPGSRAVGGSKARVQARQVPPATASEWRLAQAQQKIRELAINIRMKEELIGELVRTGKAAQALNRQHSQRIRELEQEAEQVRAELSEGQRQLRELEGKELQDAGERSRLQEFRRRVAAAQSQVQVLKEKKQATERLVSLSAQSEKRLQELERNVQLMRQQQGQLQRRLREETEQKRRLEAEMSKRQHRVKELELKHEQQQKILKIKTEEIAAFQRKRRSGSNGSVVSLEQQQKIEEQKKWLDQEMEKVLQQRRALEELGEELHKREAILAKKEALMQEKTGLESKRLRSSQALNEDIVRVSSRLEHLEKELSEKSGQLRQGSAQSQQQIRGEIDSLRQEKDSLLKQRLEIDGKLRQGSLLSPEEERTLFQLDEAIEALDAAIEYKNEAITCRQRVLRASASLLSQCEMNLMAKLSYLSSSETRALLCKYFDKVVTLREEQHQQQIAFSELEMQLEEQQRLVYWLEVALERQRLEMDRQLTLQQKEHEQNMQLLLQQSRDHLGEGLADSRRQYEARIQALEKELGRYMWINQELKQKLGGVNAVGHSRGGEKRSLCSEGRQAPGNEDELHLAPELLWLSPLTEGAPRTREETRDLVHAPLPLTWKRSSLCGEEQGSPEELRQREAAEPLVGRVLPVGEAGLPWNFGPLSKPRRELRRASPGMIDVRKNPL

[3] = target: T2, Flag-tagged KIF7 (UniProt Q2M1P5); test: co-IP; HEK293T transfected with Flag-tagged constructs; lysate in RIPA or Cell Lysis Buffer; M2 anti-Flag beads, 4 °C, 3 hr; Western blot
T2 sequence: T1 sequence

[4] = target: T3, His-tagged SUFU (UniProt Q9UMX1); test: pull-down; His-tagged KIF7, GLI1, SUFU and Flag-tagged P4HA2 proteins purified and incubated; His pulldown; Western blot; both purified
T3 sequence: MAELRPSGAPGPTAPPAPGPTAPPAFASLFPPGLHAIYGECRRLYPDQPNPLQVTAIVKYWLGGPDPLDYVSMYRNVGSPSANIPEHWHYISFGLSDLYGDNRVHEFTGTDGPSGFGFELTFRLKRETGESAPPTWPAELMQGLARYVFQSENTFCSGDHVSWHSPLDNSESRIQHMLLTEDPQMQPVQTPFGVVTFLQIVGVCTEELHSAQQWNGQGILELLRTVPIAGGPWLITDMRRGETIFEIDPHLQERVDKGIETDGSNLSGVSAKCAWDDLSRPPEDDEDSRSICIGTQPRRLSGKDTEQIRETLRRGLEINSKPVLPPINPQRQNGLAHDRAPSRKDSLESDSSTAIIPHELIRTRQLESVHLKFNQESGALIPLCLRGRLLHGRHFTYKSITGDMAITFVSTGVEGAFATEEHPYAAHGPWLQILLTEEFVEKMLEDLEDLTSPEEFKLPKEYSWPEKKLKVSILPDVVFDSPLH

[5] = target: His-tagged GLI1 (UniProt P08151); test: as above
[6] = target: T4, His-tagged KIF7 (UniProt Q2M1P5); test: as above
T4 sequence: T1 sequence

[7] = target: P4HA2 (endogenous) (human (endogenous in HEK293T)) (UniProt O15460); test: co-IP; endogenous KIF7 and P4HA2 precipitated with specific antibodies from a HEK293T cell extract; immunoblotting
[8] = target: Flag-tagged P4HA2 (UniProt O15460); test: co-IP; HEK293T transfected with Flag-tagged constructs; lysate in RIPA or Cell Lysis Buffer; M2 anti-Flag beads, 4 °C, 3 hr; Western blot; remark: listed apart in the source

binding [2]: binds | binding [3]: binds
Molecule: P4HA2 (endogenous) (from UniProt O15460 22-535)

binding [4]: no binding | binding [5]: no binding | binding [6]: binds
Molecule: Flag-tagged P4HA2 (from UniProt O15460 22-535)

Continued, molecule first:

Molecule: GLI2 (endogenous) (from UniProt P10070 1-1586)
binding [1]: binds

B1: KIF7 (endogenous) (protein, UniProt Q2M1P5 1-1343)
chain: T1 sequence
binding [7]: binds | binding [8]: binds
